Reference: PubChem BioAssay (NCI)
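How tested: cells in 96-well plates exposed to compound for 48 hours at five concentrations. The concentration for 50% growth inhibition is given as GI50. TGI: total growth inhibition.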

tested on: NCI-H322M lung; test: inhibition of tumour cell growth, NCI panel, 48 h

Compound | GI50 [µM] | TGI [µM]
Cc1ccc(C(SCCNCc2cc(N(C)C)ccn2)(c2ccccc2)c2ccccc2)cc1 | 3.56 | 15.1
O=C(Nc1cccc(C(F)(F)F)c1)c1cncc(C#Cc2cnc3ccc(N4CCOCC4)nn23)c1 | 5.82 | 45.8
Cc1cc2nc3c4ccccc4n(CCNCCN(C)C)c3nc2cc1C | 7.46 | 20.5
